Structures can show the parent of a compound that is named as a salt. ± gives the standard deviation of the averaged measurements. The full ranking holds about 1,900 compounds; the median of “normalised cell viability (NPI; 0 = phenylarsine oxide control, 1 = DMSO control)” is about 1, and the lowest 2% start at about 0.039. The list shows a part of the results.
Test system: NCI-H1944
Assay: normalised cell viability (NPI; 0 = phenylarsine oxide control, 1 = DMSO control) (fraction of DMSO control); NCI-H1944 is a non-small cell lung cancer line; higher = more viable cells (less compound toxicity)
Conditions: 6 days
[1] = glucocorticoid arm: hydrocortisone 2.75 uM co-treatment, compound 1 µM
[2] = glucocorticoid arm: hydrocortisone 2.75 uM co-treatment, compound 5 µM
[3] = glucocorticoid arm: hydrocortisone 2.75 uM pre-treated 2 days and continued, compound 1 µM
[4] = glucocorticoid arm: hydrocortisone 2.75 uM pre-treated 2 days and continued, compound 5 µM
[5] = glucocorticoid arm: vehicle, compound 1 µM
[6] = glucocorticoid arm: vehicle, compound 5 µM
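Note: CTB read-out in 384-well plates, mean of triplicate wells, normalised per plate against 1 µM phenylarsine oxide and 0.1% DMSO, compounds added 24 h after seeding.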

Structure (SMILES) | normalised cell viability [1] | normalised cell viability [2] | normalised cell viability [3] | normalised cell viability [4] | normalised cell viability [5] | normalised cell viability [6]
CNC(=O)c1ccccc1Sc1ccc2c(/C=C/c3ccccn3)n[nH]c2c1 [Axitinib] | 1.02 ± 0.015 | 1.06 ± 0.01 | 1.04 ± 0.011 | 1.033 ± 0.0058 | 1 ± 0.0095 | 0.953 ± 0.026
CNC(=O)c1ccccc1Sc1ccc2c(/C=C/c3ccccn3)n[nH]c2c1 | 1.03 ± 0.01 | 0.932 ± 0.017 | 1.007 ± 0.0058 | 0.997 ± 0.022 | 0.9967 ± 0.0021 | 0.59 ± 0.021
CC(CN1c2ccccc2Sc2ccccc21)N(C)C (stereo not given) [Promethazine hydrochloride] | 0.999 ± 0.001 | 0.969 ± 0.0072 | 1.023 ± 0.0058 | 0.901 ± 0.25 | 1.006 ± 0.0075 | 1.01 ± 0.01
S=C=Nc1cccc(NC(=S)NCCCCNC(=S)Nc2cccc(N=C=S)c2)c1 | 1.04 ± 0.04 | 1.05 ± 0.015 | 1.02 ± 0.033 | 1.04 ± 0.032 | 1.017 ± 0.0058 | 1.003 ± 0.0058
CCOc1cc(N2CCC(O)CC2)ccc1Nc1ncc2c(n1)N(C)c1ccccc1C(=O)N2C | 1.017 ± 0.0058 | 1.07 ± 0.029 | 1.02 ± 0.011 | 1.03 ± 0.015 | 1.013 ± 0.0058 | 1.03 ± 0.017
O=C(c1ccc(OCCN2CCCCC2)cc1)c1c(-c2ccc(O)cc2)sc2cc(O)ccc12 [Raloxifene hydrochloride] | 0.9787 ± 0.0031 | 1.01 ± 0.017 | 1.02 ± 0.023 | 1.08 ± 0.01 | 0.984 ± 0.0046 | 0.999 ± 0.0095
O=C(c1ccc(OCCN2CCCCC2)cc1)c1c(-c2ccc(O)cc2)sc2cc(O)ccc12 [Raloxifene HCl] | 1 ± 0.015 | 1.043 ± 0.0058 | 1.01 ± 0.01 | 1.06 ± 0.01 | 0.999 ± 0.01 | 0.943 ± 0.0079
O=C(c1ccc(OCCN2CCCCC2)cc1)c1c(-c2ccc(O)cc2)sc2cc(O)ccc12 [Raloxifene HCl; Raloxifene hydrochloride] | 1.01 ± 0.021 | 0.9993 ± 0.0093 | 1.023 ± 0.0058 | 1.04 ± 0.01 | 1.007 ± 0.0058 | 1.007 ± 0.0058
CCc1c(C(=O)NCCc2ccc(N3CCCCC3)cc2)[nH]c2ccc(Cl)cc12 | 1.01 ± 0.018 | 0.993 ± 0.021 | 1.027 ± 0.0058 | 0.999 ± 0.011 | 1 ± 0.0095 | 0.982 ± 0.012
O=C(Nc1cccc(Cl)c1)Nc1ncc(CCNc2ncnc3ccsc23)s1 [SNS-314 Mesylate] | 0.897 ± 0.015 | 0.837 ± 0.0056 | 0.94 ± 0.013 | 0.93033 ± 0.00058 | 0.723 ± 0.032 | 0.505 ± 0.044
O=C(Nc1cccc(Cl)c1)Nc1ncc(CCNc2ncnc3ccsc23)s1 | 0.905 ± 0.012 | 0.779 ± 0.041 | 0.93 ± 0.017 | 0.897 ± 0.035 | 0.686 ± 0.013 | 0.554 ± 0.041
Nc1ncnc2c1c(-c1cccc(OCc3ccccc3)c1)cn2C1CC(CN2CCCC2)C1 (stereo not given) | 0.584 ± 0.055 | 0.445 ± 0.037 | 0.546 ± 0.029 | 0.565 ± 0.051 | 0.978 ± 0.007 | 0.894 ± 0.029
CNC(=O)CN1CCC(Oc2cc3c(Nc4cccc(Cl)c4F)ncnc3cc2OC)CC1 | 0.814 ± 0.021 | 0.714 ± 0.072 | 0.867 ± 0.012 | 0.789 ± 0.066 | 0.832 ± 0.0096 | 0.703 ± 0.052
Nc1nc(N)nc(-c2cc(Cl)ccc2Cl)n1 [Irsogladine] | 0.999 ± 0.018 | 0.989 ± 0.0098 | 1.01 ± 0.011 | 0.993 ± 0.018 | 0.991 ± 0.0079 | 0.999 ± 0.0017
CCN1CCCC1CNC(=O)c1cc(S(=O)(=O)CC)c(N)cc1OC (stereo not given) [Amisulpride] | 1.002 ± 0.007 | 0.974 ± 0.028 | 1.02 ± 0.027 | 1 ± 0.018 | 1.01 ± 0.01 | 1.017 ± 0.0058
CCCS(=O)(=O)Nc1ccc(F)c(C(=O)c2c[nH]c3ncc(Cl)cc23)c1F | 1.06 ± 0.01 | 1.11 ± 0.023 | 1.06 | 1.09 ± 0.015 | 1.02 ± 0.01 | 1.03 ± 0.01
S=P(N1CC1)(N1CC1)N1CC1 [Thiotepa] | 1.01 ± 0.018 | 1.01 ± 0.037 | 1.01 ± 0.011 | 1.027 ± 0.0058 | 0.996 ± 0.0035 | 0.48 ± 0.032
COc1cc(N2CCC(N3CCN(C)CC3)CC2)ccc1Nc1ncc(Cl)c(Nc2ccccc2S(=O)(=O)C(C)C)n1 | 0.581 ± 0.031 | 0.419 ± 0.031 | 0.667 ± 0.027 | 0.559 ± 0.15 | 0.9333 ± 0.0085 | 0.204 ± 0.014
O=C(NCC1CCCCN1)c1cc(OCC(F)(F)F)ccc1OCC(F)(F)F (stereo not given) [Flecainide acetate salt] | 1.001 ± 0.009 | 1.006 ± 0.0075 | 1.006 ± 0.0063 | 1.02 ± 0.011 | 0.999 ± 0.01 | 1.002 ± 0.0074
CC(C)c1nc(CN(C)C(=O)N[C@H](C(=O)N[C@@H](Cc2ccccc2)C[C@H](O)[C@H](Cc2ccccc2)NC(=O)OCc2cncs2)C(C)C)cs1 [Ritonavir] | 0.978 ± 0.018 | 1.04 ± 0.015 | 1.005 ± 0.0087 | 1.03 | 1.003 ± 0.0061 | 1.007 ± 0.0058
CCCOC(=O)c1c(-c2ccccc2)nc(CC)c(C(=O)SCC)c1CCC | 1.007 ± 0.0058 | 1.02 ± 0.033 | 1.01 ± 0.018 | 1.05 ± 0.078 | 1.001 ± 0.0085 | 1 ± 0.014
COc1ccccc1OCCNCC(O)COc1cccc2[nH]c3ccccc3c12 (stereo not given) [Carvedilol] | 1.023 ± 0.0058 | 1.047 ± 0.0058 | 1.037 ± 0.0058 | 1.03 ± 0.025 | 1.01 ± 0.011 | 1.002 ± 0.0076
Nc1cccc(-c2cc3c(Oc4cccc(O)c4)ncnc3[nH]2)c1 | 0.946 ± 0.004 | 0.728 ± 0.045 | 0.9843 ± 0.004 | 0.853 ± 0.057 | 0.944 ± 0.018 | 0.667 ± 0.015
COc1ccc(CCCOC(Cn2ccnc2)c2ccc(OC)cc2)cc1 (stereo not given) | 1.003 ± 0.0061 | 0.515 ± 0.033 | 0.881 ± 0.22 | 1.04 ± 0.011 | 0.9993 ± 0.0092 | 0.154 ± 0.036
O=c1cc(O)cc(/C=C/c2ccc(O)c(O)c2)o1 [Hispidin] | 1.01 ± 0.011 | 0.9583 ± 0.0068 | 1.017 ± 0.0058 | 0.988 ± 0.0082 | 1.003 ± 0.0058 | 1.01 ± 0.01
